# According to PubChem BioAssay AID485364 (National Center for Advancing Translational Sciences (NCATS), 2010):
# Among all 360,000 compounds or so, about 11,000 (3.1%) were called active. The inconclusive results got no clear call from the source; some entries with a clear call stand among them for comparison. Calls come from the whole dose curve; as a rule, active = well fitted inhibition curve with a large enough effect; inconclusive = small, poorly fitted or top-dose-only effect; inactive = no such curve, though single readings can be large or run the other way. Potencies of inconclusive entries are left out as doubtful fits.
# Target: Schistosoma mansoni thioredoxin glutathione reductase (TGR) (UniProt Q962Y6)
# Test: qHTS Assay for the Inhibitors of Schistosoma Mansoni Peroxiredoxins; note: nearly all actives have a fitted effect of over 60% in size
# Details: purified TGR, DTNB reduction, TNB absorbance 405 nm; activity change, negative = inhibition: at 114 µM (top of the series) unless noted
# In short: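 Kinetic colorimetric format: TGR-catalysed, NADPH-driven DTNB reduction monitored via TNB absorbance. Enzyme dispensed at 20 nM; compound exposure 15 min at room temperature before reaction start.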
# % is set by controls: 0 for no effect and ±100 for the full control effect; potency is the fitted concentration of half-maximal effect; tags give direction and shape of the fitted curve.
SMILES,"activity change, negative = inhibition",Potency
Cc1ccc(N2C(=O)CN(Cc3ccccc3)C2=S)cc1C,inactive: 5.05%,
Cc1ccc(-n2c3c(cc(C(=O)NC4CCSC4=O)c2=O)C(=O)CCC3)cc1 (configuration not stated),,active: 79.4 µM
O=Cc1[nH]c2ccccc2c1N(C(=O)CCl)c1ccccc1,,active: 0.891 µM
CC(C)c1ccc2c(c1)-c1ccccc1S(=O)(=O)N2CC(=O)N1CCCCC1,,"inconclusive [inhibitor, single point]"
O=C(O)CCCCCNS(=O)(=O)c1ccc2c3c(cccc13)C(=O)N2,,"inconclusive [inhibitor, partial curve]"
O=C1c2ccccc2C(=O)N1CC#CCN1CCN(C2CCCCC2)CC1,,"inconclusive [inhibitor, partial curve]"
Cc1cccc(N2C(=O)NC(=O)/C(=C/c3ccc(-c4ccc(C(=O)O)c(Cl)c4)o3)C2=O)c1,,"inconclusive [inhibitor, full curve]"
O=C(Nc1ccc(Oc2ccccc2)nc1)C1CCCCN1Cc1ccc(O)cc1 (configuration not stated),,active: 31.6 µM
Cc1csc(=Nc2cccnc2)n1CC1CCCCC1,,"inconclusive [inhibitor, partial curve]"
CN(C)S(=O)(=O)c1ccc(NC=C(C#N)C#N)cc1,,"inconclusive [inhibitor, partial curve]"
COc1ccc(CN(C)CC(=O)Nc2ccc(Cl)cc2F)c(OC)c1,inactive: -2.32%,
CC(C)c1ccc(CNC(=O)CCc2ccccc2)cc1,inactive: -1.98%,
CC1CCCC(C)N1/N=C/c1ccc(O)c(O)c1 (configuration not stated),,"inconclusive [inhibitor, partial curve, poor fit]"
CC(=O)Nc1ccc([As](=O)(O)c2ccc([N+](=O)[O-])cc2)cc1,,"inconclusive [inhibitor, full curve, poor fit]"
Cc1oc(C)c(C(N)=O)c1C(N)=O,,"inconclusive [inhibitor, single point]"
O=C(CN1C(=O)C2CC=C(Cl)CC2C1=O)NCc1ccccc1 (configuration not stated),,"inconclusive [inhibitor, partial curve]"
O=C(NN1C(=O)/C(=C/C=C/c2ccco2)SC1=S)c1ccncc1,,active: 3.16 µM
COc1ccccc1NC(=O)c1c(NC(=O)Cc2ccccc2)sc2c1CCC(C(C)(C)C)C2 (configuration not stated),inactive: 6.42%,
C=CCOc1ccc(C(=O)Nc2ccc3c(c2)n(C)c(=O)n3C)cc1,,"inconclusive [inhibitor, partial curve]"
O=C1c2ccc(Cl)cc2S(=O)(=O)c2cccc(C(=O)N3CCC(Cc4ccccc4)CC3)c21,,"inconclusive [inhibitor, single point]"
O=C(Nc1cnc(N2CCC(N3CCCCC3)CC2)c(C(=O)O)c1)c1ccc(Br)cc1,,"inconclusive [inhibitor, single point]"
Cc1ncc([N+](=O)[O-])n1S(=O)(=O)c1cc(Br)ccc1Br,,"inconclusive [inhibitor, single point]"
Cc1n[nH]c(=S)c2nn(-c3cccc(Cl)c3)c(C)c12,,active: 79.4 µM
Cc1ccc(C2CC(c3ccccc3)=NN2C(=S)Nc2ccccc2)o1 (configuration not stated),,"inconclusive [inhibitor, partial curve]"

SMILES,"activity change, negative = inhibition",Potency
CS(=O)(=O)c1ccc2nc(NC(=O)CCS(=O)(=O)c3ccccc3)sc2c1,,"inconclusive [inhibitor, partial curve]"
COC(=O)C1=C(C)N(c2ccc(Br)cc2)C(=O)/C1=C\c1ccco1,,active: 35.5 µM
Cc1ccc2cc(CN(CCN(C)C)C(=O)Nc3ccc(Cl)cc3)c(=O)[nH]c2c1,inactive: -13.9%,
CCCN1CCN(CC(=O)Nc2nc3ccccc3s2)CC1,,"inconclusive [inhibitor, single point]"
CCOc1cc(C(=O)N2CCN(c3ccc(C(C)=O)cc3)CC2)cc(OCC)c1OCC,,"inconclusive [inhibitor, single point]"
C=C(C)CNC(=S)Nc1ccc(S(=O)(=O)Nc2cnc3ccccc3n2)cc1,,active: 11.2 µM
Cc1occc1C(=O)N1CCN(Cc2ccccc2)CC1,,"inconclusive [inhibitor, full curve, poor fit]"
CC(C)n1cc(/C=C2/NC(=O)N(c3cccc(Cl)c3)C2=O)c2ccccc21,inactive: -17.8%,
O=C(CSCc1ccccc1)Nc1ccc(Cl)cn1,inactive: -0.353%,
Cc1cc(NS(=O)(=O)c2ccc(NC(=O)/C=C/c3ccco3)cc2)nc(C)n1,,active: 3.98 µM
COc1ccccc1NC(=O)CSc1nnc(-c2ccco2)n1Cc1ccco1,,"inconclusive [inhibitor, partial curve]"
N#CC(=C1CCCC1)c1nc(-c2ccccc2)cs1,,"inconclusive [inhibitor, partial curve, poor fit]"
O=C(NCc1ccccn1)c1ccc(OC2CCN(Cc3ccc(CO)o3)CC2)cc1,,"inconclusive [inhibitor, partial curve]"
CCc1ccc(OCC(=O)Nc2ccc(-c3nc4ncccc4o3)cc2)cc1,inactive: 1.54%,
COc1ccc(OC)c(NC2=C(Cl)C(=O)N(Cc3ccccc3)C2=O)c1,,"inconclusive [inhibitor, partial curve]"
Cc1ccc(CS(=O)(=O)c2ncc(Cl)c(C(=O)Nc3nnc(C)s3)n2)cc1,,"inconclusive [inhibitor, full curve]"
CN1C(=O)CC(c2ccco2)Sc2ccccc21 (configuration not stated),,active: 39.8 µM
O=S(=O)(NCCSc1nnc(-c2ccco2)n1-c1ccccc1)c1ccccc1,,"inconclusive [inhibitor, partial curve]"
CCc1ccc(-c2nc(CS(=O)CC(=O)NCc3ccccc3)c(C)o2)cc1 (configuration not stated),,active: 8.91 µM
Cc1cccc(CS(=O)(=O)Cc2ccc(C(=O)NCc3ccco3)o2)c1,,"inconclusive [inhibitor, partial curve]"
Cc1c2cnn(-c3ccccc3)c(=O)c2c(C)n1CCCC(=O)N1CCN(c2ncccn2)CC1,,"inconclusive [inhibitor, partial curve]"
CC(C)c1ccc(/C=N/NC(=O)c2nnn(-c3nonc3N)c2CN(C)C2CCCCC2)cc1,inactive: -2.06%,
COc1c(N2CCN[C@H](C)C2)c(F)cc2c(=O)c(C(=O)O)cn(C3CC3)c12,,"inconclusive [inhibitor, partial curve]"
O=C(NNC(=O)C12CC3CC(CC(C3)C1)C2)c1ccccc1O,inactive: -0.093%,

SMILES,"activity change, negative = inhibition",Potency
O=c1c2cn[nH]c2[nH]c(=S)n1-c1ccccc1F,,"inconclusive [inhibitor, partial curve]"
CCOc1ccccc1C(=O)NCC(=O)OCC(=O)NCCc1ccc(S(N)(=O)=O)cc1,inactive: -4.21%,
COC(=O)c1ccc(CSc2nc3c(c(=O)[nH]2)CCC3)cc1,inactive: -4.08%,
CC(C)Cn1c2c(c(=O)[nH]c1=O)C(C(F)(F)F)(C(F)(F)F)N=C(CCC1CCCCC1)N2,inactive: 7.05%,
Cc1oc(-c2ccccc2Cl)nc1CS(=O)CC(=O)NC1CC1 (configuration not stated),,"inconclusive [inhibitor, single point]"
O=C(NC(=S)Nc1ccc2[nH]c(=O)[nH]c2c1)c1ccccc1F,,"inconclusive [inhibitor, single point]"
Cc1cccc(CN2CCN(C(=O)Cc3ccccc3)CC2)c1,inactive: -20%,
Cc1ccc(C(=O)Nc2ccc3cn[nH]c3c2)cc1S(=O)(=O)N1CCCCC1,inactive: -4.1%,
COC(=O)c1cc(=O)n(Cc2ccco2)c(=Nc2ccc(F)cc2)s1,,"inconclusive [inhibitor, partial curve]"
CCn1cc(C(=O)NCc2ccc(C)cc2)c(=O)c2cc(S(=O)(=O)N(C)C3CCCCC3)ccc21,,"inconclusive [inhibitor, single point]"
COC(=O)CCC(NC(=O)c1cc(-c2ccc3c(c2)OCCO3)oc1C)C(=O)OC (configuration not stated),,"inconclusive [inhibitor, partial curve]"
Cc1cccc(OCC(O)Cn2c(=N)n(CCN3CCCCC3)c3ccccc32)c1 (configuration not stated),inactive: 2.02%,
CCN1CCN(C(=O)CCCn2c(C)c3cnn(-c4ccccc4)c(=O)c3c2C)CC1,,"inconclusive [inhibitor, partial curve]"
O=C(CSc1nnnn1Cc1ccccc1)NCC(=O)c1ccccc1,,active: 50.1 µM
CCN1/C(=C/c2ccc3ccccc3[n+]2CC)C=Cc2ccccc21,,"inconclusive [inhibitor, full curve]"
O=S(=O)(c1ccccc1)c1nc(-c2cccs2)oc1NCCCn1ccnc1,,"inconclusive [inhibitor, partial curve]"
COc1ccc(C(=O)c2c(N)sc3c2CCN(C(=O)OC(C)(C)C)C3)cc1,,"inconclusive [inhibitor, partial curve]"
Cc1cccc(NC(c2ccccc2C)c2ccc3ccc(C)nc3c2O)n1 (configuration not stated),,active: 3.55 µM
CC(=O)NS(=O)(=O)c1ccc(NC(=O)/C=C/c2ccco2)cc1,,active: 3.55 µM
COc1ccccc1CNC(=O)C1CCN(S(=O)(=O)c2ccc3c(ccn3C)c2)CC1,inactive: 4.36%,
Cc1oc(-c2cccs2)nc1CS(=O)CC(=O)NC1CCCCCC1 (configuration not stated),,active: 17.8 µM
Cc1ccc(C)c(NC(=O)C(C)N2C(=O)c3ccccc3C2=O)c1 (configuration not stated),inactive: -19.1%,
CCN(C(=O)CN1CCN(c2ccc(O)cc2)CC1)c1c(N)n(Cc2ccccc2)c(=O)[nH]c1=O,,"inconclusive [inhibitor, partial curve]"
O=C(O)CCSC1CC(=O)N(c2ccccc2)C1=O (configuration not stated),,"inconclusive [inhibitor, single point]"
